Test results from the RNAGym collection of RNA variant scans (doi:10.7554/elife.90254).
The source gives no read counts; variants with many changes may rest on few reads.

B1: LINE1-mini (parent)
chain: GGCAGAGCUCAACACAGCGUGGCAAAGUGGCUGUGGCUAGACUGCC

Variants of: B1
Test: self-cleavage, relative activity (ratio to wild type); higher = more cleavage; in vitro, sequencing; the parent is a self-cleaving ribozyme

Row | Variant | self-cleavage
1 | C3G G7C G27U G36U | 0.02
2 | A6C G7A G29A | 0.03
3 | G2A C31A G44C | 0.04
4 | C3A G5C A11U G17U | 0.03
5 | C13A C15U C23U | 0.17
6 | C8U C10U C23U U34C U43C C45U | 0.02
7 | G2C G17A A39U C42U | 0.11
8 | G5A A26U U28G | 0.17
9 | C8A C10U A11G | 0.02
10 | C10U G17A G33U | 0.04
11 | G5C U20C C23G | 0.05
12 | A6G C10G A41U | 0.01
13 | G7A G17U C31A | 0.68
14 | A12G C13U G17A G19U | 0.02
15 | A4U A6C C8A U38C G44C | 0.06
16 | A6G G22U A39C G40C | 0.12
17 | C15A A39U A41G U43C | 0.02
18 | C8U C18U A25G | 0.19
19 | U9A G17A C31A | 0.01
20 | C3A A11C A41U | 0.04
21 | C10A C13U C46G | 0.01
22 | A12U G17U C31U | 0.15
23 | G2A A24U U34G A39U | 0.12
24 | C10A A14G U28G C45A | 0.03

Row | Variant | self-cleavage
25 | A6U A16U A25C | 0.07
26 | G7A A16G G19A A26G C45U | 0.08
27 | C3G A16C G27A U28G U34A U38G | 0.03
28 | C3A A6G G29A | 0.25
29 | G1C C23A U28C G33A U34G G36A A39C | 0.01
30 | G7A G19A C31A C45G | 0.17
31 | G7C C10U C13A C31G A39C C46U | 0.02
32 | G2A U20C U34C C42G | 0.11
33 | G17U U28G C37U | 0.1
34 | A6C C18A G30U | 1.39
35 | A12G G21C G27U | 0.01
36 | A6U U20C C45G | 0.21
37 | A6U G30A U43A | 0.03
38 | G1A G22U U32A C37G A39U | 0.01
39 | A11C G22C G36U | 0.01
40 | G5A U20C C45U | 0.19
41 | G7C U9G C15G G33A U34G G36A | 0.06
42 | C13A G30C G33A | 0.27
43 | G1C C3U G17A A24U | 0.03
44 | A4C G27A G29C | 0.54
45 | C8A G36U G44U | 0.28
46 | U9A C23G U32A C45G | 0.14
47 | A6U C8A A14U G21U U32G | 0.09
48 | G7U A12C C46U | 0.03

Row | Variant | self-cleavage
49 | A6C C23G G29C | 0.57
50 | C15A G36U U43C | 0.02
51 | C10G G19A G22U A24G G40U | 0
52 | A12G G27C G29C C45A | 0
53 | G22C G36A C37A | 0.19
54 | G5C A14G G30U U34A A41U C45U | 0.01
55 | U9A G19A C37U | 0.15
56 | G27A G44A C45A | 0.31
57 | U20C A25G G29A G33U | 0.04
58 | G27C C31A A41U C46U | 0.03
59 | C3G G7A C8A A24G | 1.26
60 | A11U C15A A41G | 0.02
61 | C13G G22U C23A A25C C37G | 0.01
62 | A14U C23G U34A C42A C46A | 0.15
63 | A6U C13A G19U U28C G36U | 0.06
64 | A6C C15A G17A G40U | 0.04
65 | G2A C10U G33A G36A | 0.03
66 | A6C C13G U38A A41G | 0.12
67 | G5U C8A C13G C18U G22C G36C A39G | 0.1
68 | A16U A24U U38G C45U | 0.02
69 | G1U G5U C15A U28A G44A | 0.01
70 | G1U G29C G35A | 0.09
71 | C8U C13G G27A G33C G35C C45A | 0.01
72 | A14C G21U U34G U38A C42G | 0

Row | Variant | self-cleavage
73 | A14G A25C G40C G44U | 0.02
74 | A6U A12U C13U C23G | 0.01
75 | A14C G30U U38G | 0.03
76 | G2A C10A A11C C18U A25C G29U | 0.01
77 | C13A U20G A41C G44A | 0.01
78 | A12U U20G C42U G44A | 0.07
79 | C3A C15U G27C C37A | 0.02
80 | C13A C18G G21U G33U G44A | 0.12
81 | C8G G21A G33C C46A | 0.05
82 | C18G G30A U38G G44U | 0.03
83 | A4C U9A U20C U32G A39U C42G | 0.01
84 | G19A C23U A26G G30U | 0.82
85 | A4U A6C G7C C8A A41U G44C | 0.04
86 | C3A U9A G21A | 1.43
87 | A14U G27U G33U | 0.07
88 | A11G A14U C42U | 0.02
89 | G21U A24G G27C C31U G36A C37A | 0.09
90 | G7A G21U C37A U38A G40C | 0.23
91 | A26G G29U G36A | 0.22
92 | A6G A25G U38C | 0.02
93 | C15U G35U A39C | 0.09
94 | G2A U28C C31U G36A | 0.36
95 | A11G U43C C45A | 0
96 | C15G U20C C31G | 0.02

Row | Variant | self-cleavage
97 | A6C A14G G19C | 0.25
98 | G7C A11G G30A | 0.02
99 | A12G C13U U28A | 0.02
100 | A12U A14G C45A C46G | 0
101 | A6U U9G A12G A41C | 0.02
102 | C3G G21C U28A G36A | 0.08
103 | C13A A14U G22U G40A | 0.03
104 | U20A G21C A25C G27C C42A U43G | 0
105 | C8U C37A G40A | 0.08
106 | A11U A14C G33C | 0.02
107 | G7U A11C A14U C18U G22C G27U U32C | 0.01
108 | G21A G22A U38A | 0.11
109 | C3G C8U C10G C15A G27A C46G | 0.07
110 | C8U A24U C31G G35C | 0.07
111 | U9C C15U C23U G27C | 0
112 | G5A A11G C31A G35U | 0.02
113 | A14U G17U G27U U32C A41U | 0.1
114 | C10U A12G A14U C15A G17U | 0.06
115 | G1C G5A C8A G21A C46U | 0.46
116 | G1C G33C C46A | 0.01
117 | A16U U20A G21C A25G G40A | 0.01
118 | G7C C8G G29C U34A C37G | 0.11
119 | C15U G29C C42A G44U | 0.06
120 | C3G G7A A41G | 0.11

Row | Variant | self-cleavage
121 | A24U U32A G40U | 0.02
122 | C3G C10G G19A | 0.02
123 | G7U C8G G22U G29U G30A | 0.12
124 | C23U A24C A26U G27U | 1.07
125 | A12C A16U A24U U28G | 0
126 | G5A A6U A14U | 0.29
127 | G17A C23U U28G | 0.06
128 | A6G C10G U34A C42G | 0.01
129 | A11U C18A G29A G33U A39C A41U | 0
130 | C13G A16G A25U G29C | 0.01
131 | G2C C3A A4G G19U G21A | 0.04
132 | G21A G22U G30U G40A | 0.07
133 | G2C A12G A41C | 0.04
134 | G5U A16G A24G C31U | 0.03
135 | G2U G21C G30A | 0.08
136 | U9C C18A G21A G33C G35U | 0.03
137 | A6U A16C G27C U28C | 0.22
138 | C8U U28G G36U | 0.03
139 | C13U A14C A41C C42U | 0.01
140 | A6C G40A C42A | 0.02
141 | G5A A12C C31U U32G A41U | 0.01
142 | G1C G35C C37G | 0
143 | G7A U34C A39G C42A | 0.03
144 | C3G C13A G27A A41U | 0.06

Row | Variant | self-cleavage
145 | A24G G27U U34A | 0.06
146 | U20G G40U C46A | 0.06
147 | A6U A12U G21U A26G | 0.09
148 | C3U G30U C37G | 0.04
149 | C13A A14C G22A | 0.07
150 | C3A C18U G19A G22A A24C U28A | 0.45
151 | A4C G17U G21A C45U | 0.41
152 | C15A U32G U34A | 0.14
153 | A4G G19C A26G U28G G36U C42A | 0.02
154 | G2A U34G G44C | 0.04
155 | C31A G33A G35C U38A U43A C46U | 0.08
156 | G2A A4C G7U A14G C15A C23U G29C | 0.15
157 | G5U A14G G17U | 0.09
158 | C13A G35U C42G | 0.09
159 | C15A U28A C46U | 0.07
160 | C15U C31G C46U | 0.05
161 | G5C G35A G36A C46A | 0.05
162 | A26G U34G C45U | 0.03
163 | A6G C13G G17C C31U U32C | 0.03
164 | C23U G40U C45U | 0.52
165 | A11G U20A A26U | 0.02
166 | A6C G7A A24C G44A | 0.11
167 | C8U U9A G17U G30U G33U A39G | 0.6
